Source: the supplement of paper PMC3334620
In all, about 33,000 sequences were measured (“E-score (-0.5 to 0.5)”: median about -0.054, highest 2% from about 0.39 on). The list shows a part of the results.

Target: Ylr278c (UniProt Q05854)
Experiment: PBM E-score (8-mer binding enrichment) (E-score (-0.5 to 0.5)); higher = stronger / more preferred TF binding; most listed sequences are background and not binding sites
Conditions: protein concentration: 200 nM; construct: GST-DNA-binding domain
Method in brief: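 Yeast transcription factors, full-length or as DNA-binding domains, were expressed with a GST tag using PURExpress in vitro transcription/translation. At about 100-200 nM they were applied to universal all-10-mer Agilent arrays, double-stranded by primer extension on fresh or once-stripped slides. Fluorescent anti-GST detected bound protein, and masliner normalised the scans. E-scores for ungapped eight-base words, pooled with reverse complements, came from the Universal PBM Analysis Suite.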

Sequence	PBM E-score
CGACTACC	0.0547
GCATCCAA	-0.142
CTTGTTAC	-0.0957
ATGGTTAA	-0.218
AAGGCCTT	-0.419
CGCAAATA	0.152
CCCTCACC	-0.103
GGGCGTCA	0.0419
GCCGCCAA	0.0716
GATTTCAC	0.147
ACGAAATC	0.0376
GAACATGC	-0.158
CAATCGCC	0.148
AGCGATCG	0.0532
ATCAGCAC	-0.169
AATTCAAT	-0.026
AGTCGAAC	-0.0544
ACCCAATA	-0.00615
AGCGCTGC	-0.152
CAACACAA	-0.102
ATAACATG	-0.00356
GCGCGGCC	0.203
ACGCCCTG	-0.0418
CATGCGCA	-0.083
AATGGGCT	-0.325

Sequence	PBM E-score
TGGGGTAA	0.138
CCGACGCA	0.192
AACCGGAA	0.391
AAGAGGGG	-0.0897
CCGCGTCG	0.256
GCTTTAAA	-0.0902
GATAATAC	-0.0531
ATACATAT	0.0738
AATGTAAG	-0.0195
ACGCAGGA	-0.166
CAGAGTGC	-0.168
AGCCTCTA	-0.318
CCCACCCC	0.303
ACATCTTG	-0.185
AGATATTC	-0.146
AATAAACG	0.0237
CATGTGTA	-0.0836
AGGCCAAG	-0.19
AGGAGCAC	-0.0853
AACAGGGA	-0.0959
CGAATGCA	-0.153
GTTTACAA	-0.056
CTCATTAC	-0.108
TCCGCCAA	0.347
GGCATGCA	-0.144

Sequence	PBM E-score
ACTTGCTG	-0.308
ACGGCCTC	0.0486
AACCCTAC	-0.291
ATTATACG	0.101
ATGGACCC	0.0296
GGCTCGTA	-0.115
CCAGACAA	-0.0498
TACTACGA	-0.195
TAACCCGA	0.275
TCCTCTAA	-0.263
TAGGGTGA	-0.152
CTACCCTA	-0.223
CTGAAGAC	0.0116
CCGAGTAA	0.15
GGTCACAC	-0.232
ACGACTTA	-0.243
GACTGCAC	-0.141
AAGGGATC	0.0705
CGGAGATA	0.483
AGGAGCTA	-0.144
AGTCCAGA	-0.0515
ATCCCGTA	0.158
CAGCACCG	0.25
ACAAATAC	0.0775
ATCGGGAC	0.115

Sequence	PBM E-score
CGTCTCCA	0.00299
AACAACCC	0.0827
CTGTCCTA	-0.231
GATTCGTA	-0.0336
CATCGAAG	-0.0673
AATTCTGG	-0.098
ATTCGTGC	-0.0347
ACTCTAAG	0.0543
CGATTGCA	0.0394
ACTAGTCG	-0.0761
CCCCTTAG	0.0521
AAAGGCTT	-0.154
AATGTTGA	-0.127
TGATAGAA	-0.124
GATTCTTA	-0.0307
AAGTGCTG	-0.205
ACTCATTC	0.16
GTATATTA	-0.198
CGCTATCC	0.0943
AGGTCTAC	-0.229
TCTCCAAA	-0.126
GCACTCGA	0.0621
CGAATAGA	-0.193
CCTTGGCG	0.0155
ACTTATTA	-0.231

Sequence	PBM E-score
ACCAGTTC	-0.0541
CATAAGCG	-0.0734
GAGCTTAA	-0.104
CTTCCACC	-0.115
CCGGTACG	0.162
AGGAGTAA	0.0423
ATCAGGGA	-0.162
AAGTTGGC	-0.00422
ATGCTATG	-0.233
GCTGTTCC	0.0661
ATCTAGTA	-0.27
GTCCGTAA	0.331
CCGGAGAA	0.489
CGTGTGAC	-0.00952
GCCATCCA	-0.107
AGAGGGCA	-0.213
GCGCCCAC	0.0762
ACGAAACT	-0.0402
ATTCGTCC	0.234
ATATACGA	-0.182
CGCAGCGC	0.0587
ATAGCGAC	-0.131
ACATGTCT	-0.111
AAAGTGAG	-0.145
AAGCAACG	-0.0532

Sequence	PBM E-score
GAACCGCA	0.15
AACCTAGA	-0.0646
ATGACTGA	-0.0622
CTAGTGGA	-0.22
AATGCTAC	0.0767
CGCATTCA	0.0617
GTCTCTTA	0.0191
CCGCAACA	0.27
CGCATCAG	0.225
CCGTTCTA	0.162
CGCGCCAA	0.187
TGAAGGAA	-0.133
ACGGGTCG	0.0181
ATATCACC	0.0507
ATTTAATG	-0.00533
ATGTAGCC	-0.0937
ACATTGGA	-0.127
ACGAAGCT	-0.187
AGAGCCGC	0.236
ATCAACCA	-0.177
CCGAGCCG	0.379
CCGGTTAC	0.315
ATGATCAA	-0.255
GGTCCTAC	-0.207
GCTGATCA	-0.00497

Sequence	PBM E-score
TATTGAAA	0.0175
ATTCTTGA	-0.0207
ATTGCCCG	0.177
AGCGCTGA	0.18
CATGGCAG	-0.0043
AGTTAAAC	-0.135
AACCATGC	0.0626
ACGGCCAG	0.0757
AAAGTCAA	-0.106
GGCCCAAC	-0.1
GCTCTGAC	-0.29
ACCACATG	-0.215
CCGGAACA	0.442
TAAATGAA	-0.141
ACTTAGGC	-0.00672
ACCCCGTC	0.253
CTGCCAAC	-0.174
GATCACAC	-0.0572
AGGGTTTC	-0.012
GCTGTCAC	-0.182
CGGTTCCA	0.13
CACTCTAG	-0.163
CCCGGAGG	0.439
AGAACGGG	0.0721
CTGAAAAA	-0.0884

Sequence	PBM E-score
CCTTATTC	-0.234
ACAACGTA	-0.21
ACACCGCC	0.199
AAATCAAT	-0.0293
CGGCCCCG	0.297
AGGGTTAC	-0.236
CTATCTAA	-0.0478
GCAGGCAA	-0.0214
AGTCCAGG	-0.138
CAACCGCG	0.208
AACAAGAT	0.0527
CGATGCAC	-0.0843
ACAGGTAC	-0.123
TATCAGGA	-0.131
CAAACATC	0.127
AAATAGTT	0.0407
AACGCGCC	0.0465
GCGGACGC	0.177
CCCATTGC	-0.0499
CTCGACTC	-0.0517
GAAATTCC	0.348
ATGGTAAG	-0.203
ACCTACAA	-0.178
CACCCTAA	-0.147
GCGCTCAA	0.0181

Sequence	PBM E-score
GGATGGAC	0.0145
CATTCTGA	-0.0107
ACAGTTCA	-0.215
ATCACTGC	-0.0314
CGCCTCCA	0.0143
GAACGATC	0.041
TCACTGGA	-0.0356
CTACCCGC	0.0419
CCTCCCGA	0.0701
GTCTGTAA	0.125
CACGGCGG	0.199
CTATACGA	-0.142
ACCTATCA	0.00429
ACCTAGTA	-0.244
AAGATAAG	-0.167
TTCTGCAA	-0.0696
ATATGCTC	0.0559
ATACGCAT	-0.00802
CCTGGTCA	-0.339
